{"source": "patent US20260234660A1", "about": "“TREATMENT OF MUSCLE RELATED DISORDERS WITH ANTI-HUMAN CACNG1 ANTIBODIES” (Regeneron Pharmaceuticals, Inc., priority 2023, published 2026)", "target": "T1, androgen receptor (AR) (Homo sapiens, UniProt P10275, T878A)", "T1 construct": "LNCaP cells were transfected with lentivirus (Qiagen); endogenous in cells", "T1 sequence (P10275 1-920 T878A)": "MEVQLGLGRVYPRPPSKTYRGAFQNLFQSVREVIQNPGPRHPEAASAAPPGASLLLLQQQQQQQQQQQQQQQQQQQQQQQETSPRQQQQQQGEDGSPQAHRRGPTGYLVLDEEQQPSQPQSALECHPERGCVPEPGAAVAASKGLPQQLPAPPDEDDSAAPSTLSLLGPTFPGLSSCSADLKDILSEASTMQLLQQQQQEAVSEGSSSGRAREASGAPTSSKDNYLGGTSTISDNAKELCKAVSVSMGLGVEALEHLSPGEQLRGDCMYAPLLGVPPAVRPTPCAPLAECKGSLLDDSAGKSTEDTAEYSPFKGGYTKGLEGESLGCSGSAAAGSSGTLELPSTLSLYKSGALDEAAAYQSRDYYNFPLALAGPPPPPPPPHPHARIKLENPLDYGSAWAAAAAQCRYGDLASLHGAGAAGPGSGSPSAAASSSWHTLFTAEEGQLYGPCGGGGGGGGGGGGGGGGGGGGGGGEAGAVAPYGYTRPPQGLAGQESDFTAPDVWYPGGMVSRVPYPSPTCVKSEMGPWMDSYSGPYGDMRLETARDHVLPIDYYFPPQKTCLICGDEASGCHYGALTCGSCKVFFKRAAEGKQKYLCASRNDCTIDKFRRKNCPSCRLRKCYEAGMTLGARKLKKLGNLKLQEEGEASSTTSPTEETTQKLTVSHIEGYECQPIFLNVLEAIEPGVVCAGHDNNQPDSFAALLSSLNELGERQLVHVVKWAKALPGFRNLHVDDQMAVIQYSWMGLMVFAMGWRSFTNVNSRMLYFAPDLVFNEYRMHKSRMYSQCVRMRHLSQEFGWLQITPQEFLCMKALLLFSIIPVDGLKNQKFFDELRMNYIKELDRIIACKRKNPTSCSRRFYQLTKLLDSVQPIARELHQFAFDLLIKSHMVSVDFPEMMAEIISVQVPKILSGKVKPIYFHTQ", "test": "Androgen receptor luciferase reporter assay in AR.Luc LNCaP cells (no hCACNG1)", "assay_type": "cell-based", "conditions": "24 hour incubation", "data": [{"molecule": "REGN14573: 10713 variable regions, hIgG1 N180Q; tested conjugated via VC-PAB linker to DHT (M3004) (conjugate) heavy chain: EVQLVESGGNLVQPGGSLRLSCAASGFTFTSHAMNWVRQAPGKGLEWVSVITGRGFDTHYADSVKGRFTISRDISKNTLYLQMNSLRAEDTAVYYCAKGLYDSGNYYIDYWGQGTLVTVSS[sequence of human IgG1 constant region with changes omitted] light chain: QSVLTQPPSVSAAPGQKVTISCSGSSSNIGNNYVSWYQQLPGTAPKLLIYDNNKRPSGIPDRFSGSKSGTSATLGITGLQTGDEADYYCGTWDLSLSFNWVFGGGTKLTVLGQPKAAPSVTLFPPSSEELQANKATLVCLISDFYPGAVTVAWKADSSPVKAGVETTTPSKQSNNKYAASSYLSLTPEQWKSHRSYSCQVTHEGSTVEKTVAPTECS", "values": [{"measurement": "androgen receptor activation (RLU)", "value": "none of the CACNG1 antibodies conjugated to DHT showed any appreciable activation"}]}]}
